Laboratory results as given in the supplement of paper PMC9174493.
The other results are listed elsewhere or left out. Single values of this set are uncertain. Values with irradiation are relative to irradiated vehicle.

Key:
[1] = tested on: A549-Dual; assay: NF-kB reporter (SEAP) activity, viability-corrected, relative to vehicle (fold change vs vehicle); higher = more activation of STING-IRF / NF-kB immune response reporter; conditions: 10 µM
[2] = tested on: A549-Dual; assay: ISRE reporter (Lucia luciferase) activity, viability-corrected, relative to vehicle (fold change vs vehicle); higher = more activation of STING-IRF / NF-kB immune response reporter; conditions: 10 µM
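For NF-kB reporter (SEAP) activity, viability-corrected, relative to vehicle in this document: viability correction based on the alamar blue assay, with concentrations leaving 10% survival or less dropped.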

Structure (SMILES)	NF-kB reporter ([1]; irradiation: 8 Gy/4 fr)	NF-kB reporter ([1]; irradiation: none)	ISRE reporter ([2]; irradiation: 8 Gy/4 fr)	ISRE reporter ([2]; irradiation: none)
CNCCCC1c2ccccc2C=Cc2ccccc21.Cl [Protriptyline hydrochloride]	0.583	0.892	0.648	0.873
CC(=O)N=c1sc(S(N)(=O)=O)nn1C [Methazolamide]	0.906	1.16	0.964	1.21
CN1CCCCC1CCN1c2ccccc2Sc2ccc(S(C)=O)cc21.O=S(=O)(O)c1ccccc1 (configuration not stated) [Mesoridazine Besylate]	1.45	0.888	1.52	1.16
C[C@H](O)C(=O)[O-].[Na+] [Sodium L-lactate]	0.76	0.728	1.02	0.771
CC=Cc1ccc(OC)cc1 (stereo in doubt) [cis-Anethole]	1.14	0.773	0.871	0.595
CCC/C=C1\OC(=O)C2=C1CCC=C2 [Ligustilide]	0.931	0.994	0.749	0.647
O=C1OC(c2ccc(O)cc2)(c2ccc(O)cc2)c2ccccc21 [Phenolphthalein]	0.618	0.545	0.664	0.459
Clc1ccc(CCC(Cn2ccnc2)Sc2c(Cl)cccc2Cl)cc1.O=[N+]([O-])O (configuration not stated) [Butoconazole nitrate]	0.598	1.09	0.614	1.14
